Results published in PubChem BioAssay AID1508623 (National Center for Advancing Translational Sciences (NCATS), 2021).
Screen size: about 48,000 compounds; about 450 (0.94%) were called active. Another 19% or so got no clear call; they are omitted. The call rests on the fitted dose curve; in most records, active means well fitted inhibition curve with a large enough effect; inconclusive means small, poorly fitted or top-dose-only effect; inactive means no such curve, though single readings can be large or run the other way. This is one part of the list.

Experiment: Primary qHTS for Identification of Small Molecule Inhibitors of Huntingtin Promoter Activity; further: nearly all actives have a fitted effect of over 50% in size
Conditions: HEK293 HTT promoter firefly luciferase reporter (activity 0% = vehicle and -100% = no light), 24 h; series mostly up to 57.5 µM; activity change, negative = inhibition: at the top concentration
Method in brief: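 HEK293 luciferase promoter-reporter cells (2,500/well) plated 24 h, then compounds added at up to 57.5 uM final for 24 h at 37 °C. Firefly luminescence by Dual-Glo, normalized to vehicle (0%) and zero RLU (-100%).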

Activity change, negative = inhibition, inactive:
CCOC(=O)c1ccccc1NC(=O)CSc1nnc(CC)n2c1cc1occc12 -8.19%
CCCCc1ccc(C(=O)Nc2ccc3nc(N4CCN(CC)CC4)cc(C)c3c2)cc1 -1.86%
Fc1ccc(-c2cc3ncc4c(n3n2)-c2cc(Cl)ccc2OC4)cc1 -0.951%
O=C(O)CNC(=O)c1ccccc1 1.25%
Cc1ccccc1Nc1ncnc2c1cnn2C -6.43%
Cc1ccccc1OCC(=O)Nc1ccc(-c2nc3ncccc3o2)cc1 62.9%
CCCCN(CC)CCNC(=O)c1cc2c(=O)[nH]c3ccccc3c2n1C -3.89%
O=C(NCc1ccc(F)cc1)c1ccc2c(O)c(S(=O)(=O)c3ccccc3)c(=O)[nH]c2c1 5.97%
Cc1ccccc1NS(=O)(=O)c1ccc2[nH]cc(C(=O)N3CCCCC3)c(=O)c2c1 -11.8%
COc1ccc(C)cc1-n1nnc(-c2nc(-c3ccccc3Cl)no2)c1N 2.42%
CCCc1nc2ccccc2n2c(-c3ccccc3)c3c(=O)n(C)c(=O)n(C)c3c12 -18.6%
Cc1ccccc1CN1C(=O)c2ccccc2Sc2ccc(C(=O)N3CCCC3)cc21 -17.9%
CCN(C(=O)c1coc(=O)c2ccccc12)c1ccccc1C -9.7%
CC(C)c1ccc(C(=O)Nc2cc(-c3ccccc3F)nn2-c2ccccc2)cc1 -39%
Cc1ccc(-c2nnn3c2nc(NCCc2ccc(Cl)cc2)c2ccccc23)cc1 -6.36%
CCCOc1ccc(CNC(=O)Cn2ncn3c(cc4sc(CC)cc43)c2=O)cc1 -1.11%
O=C(c1ccc(C=Cc2n[nH]c3ccccc23)cc1)N1CCNCC1 18.1%
Cc1c(C(=O)N2CCCCCC2)c(S(=O)(=O)NCc2ccc(Br)cc2)c(C)n1C -15.7%
Cc1ccc(-c2nc3ccccn3c2Nc2ccccc2C)s1 -0.667%
CCOc1ccc(CNC(=O)c2ccc3nc(C(C)C)oc3c2)cc1 1.1%
COC(=O)c1ccc(NC(=O)NCCn2nnc3cc(S(=O)(=O)N(C)C)ccc32)cc1 -20.9%
COc1ccc(Nc2cc(C(=O)NC3CCC(C)CC3)c3ccccc3n2)cc1OC (stereo unspecified) 12.8%
Cn1c(=O)c(=O)n(C)c2cc(S(=O)(=O)CCC(=O)Nc3ccc(F)cc3)ccc21 -19.8%
Cc1oc2ncnc(N3CCOCC3)c2c1C(=O)N(Cc1ccccc1)C(C)C -8.63%
COc1ccc(OC(=O)c2nc(SCc3ccc(F)cc3)ncc2Cl)cc1 -3.56%
Cc1ccc(C2=NN(CC(=O)NCCC(C)C)C(=O)CC2)cc1 -9.84%
CCOC(=O)c1cc(OC(=O)c2ccc(C)cc2)n(-c2ccccc2)n1 -5.26%
COc1cccc(-c2nnc(-c3ccccc3NC(=O)c3cccc(C(F)(F)F)c3)o2)c1 -0.374%
COc1ccc(NC(=O)c2ccco2)cc1NC(=O)COc1ccccc1 -12.9%
CCOC(=O)c1ccc(NC(=O)c2c(NCc3cccs3)sc3c2CCCC3)cc1 -31%
CCc1ccc(S(=O)(=O)c2cn(C)c3cc(N4CCC(C)CC4)c(F)cc3c2=O)cc1 -13.8%
Cn1c(=O)n(C)c2cc(N3CCOCC3)c(NC(=O)c3ccccc3Br)cc21 -4.46%
COc1ccc(CNC(=O)CN2C(=O)CSc3ccc(S(=O)(=O)N4CCOCC4)cc32)c(OC)c1 -1.74%
COc1cccc(CNC(=O)c2cc(S(=O)(=O)N3CCCCC3)cn2C)c1 -11.1%
CC(=O)Nc1ccc(NC(=O)CSc2nc3ccccc3nc2N2CCC(C)CC2)cc1 -29.7%
COc1ccc(NC(=O)C(Cc2ccccc2)n2cccc2)cc1OC (stereo unspecified) -18.9%
Cc1ccccc1Cn1c2ccccc2c2cnn(CC(=O)NCCc3ccccc3)c(=O)c21 12%
COc1ccc(NC(=O)CCS(=O)(=O)c2ccc3nc(C)sc3c2)cc1Cl -4.02%
Cc1ccc(OC(=O)CSc2nnc(-c3cccs3)o2)cc1 29.4%
CCn1c(=O)c2sccc2n2c(CCC(=O)N3CCN(c4ccc(C(C)=O)cc4)CC3)nnc12 -7.16%
CNC(=O)c1c(NC(=O)/C=C/c2ccccc2Cl)sc2c1CCC2 -20.3%
O=C(Cn1c(-c2cccs2)cc2cc(Cl)ccc21)N1CCN(c2ccccc2F)CC1 -29.2%
COc1ccc(C(=O)c2oc3ccccc3c2NC(=O)COc2cccc(C)c2C)cc1 5.17%
CCC(=O)Nc1ccc(CC)cc1-c1nc2ccccc2n(Cc2ccccc2)c1=O -24.5%
CC1CCC(NC(=O)c2cc3c(Cl)nc4ccccc4c3s2)CC1 (stereo unspecified) 32.2%
CC(=O)Nc1ccccc1-c1nc2ccccc2n(Cc2cccc(Br)c2)c1=O 0.104%
CCOc1ccccc1NC(=O)Cn1c(=O)n(Cc2ccccc2)c(=O)c2cccnc21 -15.7%
Cc1cc(C)c(NC(=O)Cn2nnc(-c3ccccc3)n2)c(C)c1 1.43%
CCOC(=O)C(C)NC(=O)C1CCN(c2ncnc3c2nc2n3CCCCC2)CC1 (stereo unspecified) 5.67%
O=C(CN1CCCN(Cc2ccccc2Cl)S1(=O)=O)NCc1ccccc1 -11.9%
Cc1cccn2c(=O)cc(COc3cccc(NC(=O)COc4ccc(F)cc4)c3)nc12 4.82%
CC(C)N(Cc1ccccc1)C(=O)Cn1ncc2c([nH]c3ccccc32)c1=O -10.2%
CCC1CCCCN1CC(=O)Nc1cc(C)c2c(=O)oc3ccccc3c2n1 (stereo unspecified) 3.65%
O=C(CSc1nc2c([nH]c3ccccc32)c(=O)n1-c1ccc(Cl)cc1)N1CCOCC1 -11%
Cc1ccc(NC(=O)N2CCC(c3ccccc3)C2)cc1C (stereo unspecified) 55.2%
O=S(=O)(NCC(c1ccco1)N1CCOCC1)c1cc(F)ccc1F (stereo unspecified) -2.48%
Cc1cccc(NC(=O)CSc2c(C)cnc3c2c(=O)n(C)c(=O)n3C)c1C -2.82%
CCc1nn(C(CC)C(=O)NCc2ccc(F)cc2)c(=O)c2cc3occc3n12 (stereo unspecified) -18%
COc1cc(C(=O)NCC(c2ccco2)S(=O)(=O)c2ccccc2)cc(OC)c1OC (stereo unspecified) 1.57%
CCCOc1ccc(C(=O)N(Cc2ccc(N(C)C)cc2)CC2CCCO2)cc1 (stereo unspecified) -19.6%
O=C(c1cc2c(s1)-c1ccccc1OC2)N1CCN(c2ccccc2)CC1 -13.2%
CC1=C(C(=O)Nc2ccccc2)C(CC(C)C)n2nc(SCc3ccccc3C)nc2N1 (stereo unspecified) 4%
CCCN(CCC)CCCNC(=O)Cn1ncc2c3ccccc3n(Cc3ccccc3)c2c1=O 17.3%
Cc1ccc(NC(=O)Cc2csc(C)n2)c(C)c1 12.3%
Cc1ccc(C(=O)Nc2ccc(OCc3cc(=O)n4c(C)csc4n3)cc2)cc1 5.05%
Cc1cccc(NC(=O)CSc2nncn2C)c1 -0.211%
Cc1ccc(Nc2c(-c3ccc(O)cc3)nc3cccc(C)n23)cc1 0%
Cc1nc(-c2ccc(Cl)cc2)sc1CCNC(=O)c1cccs1 -35.3%
CCN(CC)CCN(C(=O)c1ccco1)c1nc2ccc(Br)cc2s1 5.98%
O=C(c1ccc2c(c1)N(Cc1ccccc1)C(=O)c1ccccc1S2(=O)=O)N1CCCCCC1 6.65%
CCC(C)NC(=O)CSc1nc2c(sc3ccccc32)c(=O)n1Cc1ccccc1Cl (stereo unspecified) -24.7%
Cc1ccc(C)c(CSc2nc3ccncc3n2CC(=O)Nc2ccc(N(C)C)cc2)c1 -18.4%
Cc1cccc2nc(-c3cccc(NS(=O)(=O)c4ccccc4)c3)cn12 -35.6%
Clc1ccccc1CNc1ncnc2c1c(-c1ccccc1)cn2-c1ccccc1 -26.7%
Cc1ccc(C)c(Cn2c3ccccc3c3cnn(CC(=O)NCc4ccccc4)c(=O)c32)c1 1.54%
Fc1ccccc1Cn1c(-c2ccccc2)nc2ccccc21 -21.6%
COCCCNC(=O)CSc1nc2c(sc3ccccc32)c(=O)n1CCCC(=O)NCCOC -14.6%
COc1cccc(N2CC(NC(=O)c3cccc(OC)c3OC)CC2=O)c1 (stereo unspecified) -17.5%
CC(=O)c1ccc(NC(=O)COCc2cc(-c3ccco3)on2)cc1 -10.4%
Cc1ccc(-c2cc(C(=O)Oc3ccccc3)c3cc(C)ccc3n2)cc1 14%
COc1ccc2c(c1)c1c(c(=O)n(-c3cccc(Cl)c3)c(=O)n1CC(=O)N1CCCC1)n2C -4.33%
CCC1CCCCN1CCCNC(=O)CN1C(=O)CSc2ccc(S(=O)(=O)N3CCOCC3)cc21 (stereo unspecified) -11.4%
Clc1ccccc1CN1CCc2sccc2C1
CCOc1ccccc1NC(=O)Cn1ccn(Cc2ccc(C)cc2)c(=O)c1=O -25%
COc1ccc(/C=C\C(=O)NC2CC(=O)N(c3ccccc3)C2)cc1OC (stereo unspecified) -2.56%
COc1cc(NC(=O)c2nc(-c3ccncc3)no2)cc(OC)c1OC 7.08%
Cc1ccc(CN(C(=O)COc2c(C)cccc2C)C2CCS(=O)(=O)C2)o1 (stereo unspecified) -8.14%
COC(=O)c1nc2n(n1)C(c1cc(OC)ccc1OC)C(C(=O)Nc1ccc(C)cc1C)=C(C)N2 (stereo unspecified) -8.75%
Cc1ccc2oc3c(c(=O)c2c1)C1(C(=O)N(C)c2ccccc21)N(CCCO)C3=O (stereo unspecified) -14.6%
COc1ccc2oc(-c3ccc(C)c(NC(=O)COc4cc(C)cc(C)c4)c3)nc2c1 5.7%
CCc1ccc(-n2c(=O)c3c4c(sc3n(CC(=O)c3ccc(Cl)cc3)c2=O)CCC4)cc1 -0.307%
O=C(CCS(=O)(=O)c1cccc2nsnc12)Nc1ccc(F)cc1 -10.5%
Cc1ccc(-n2nnc(C(=O)Nc3cc(F)ccc3F)c2C)cc1F 75.5%
COc1ccccc1NC(=O)c1sc2nc3c(cc2c1N)CCCCCC3 -24.4%
O=C(c1ccccc1)N1c2ncnn2C2(CCCCC2)[C@@H]2CCCC[C@@H]21 -31.1%
Cc1ccccc1C(=O)Nc1cc(-c2ccc(Cl)cc2)nn1-c1ccccc1 10.4%
Cc1nn(-c2ccc(N3CCOCC3)nn2)c(C)c1CCC(=O)NCc1ccc(F)cc1 -0.441%
Cc1ccc(NC(=O)C2CCN(c3cc(C)nc4c(-c5ccc(Cl)cc5)c(C)nn34)CC2)c(C)c1 -11.7%
COc1ccccc1N1CCN(C(=O)CN2C(=O)COc3ccc(S(=O)(=O)N4CCC(C)CC4)cc32)CC1 -2.8%
CCOc1ccc(NC(=O)CSc2nc3c(oc4ccccc43)c(=O)n2CCOC)cc1 -16.8%
Cc1ccn2c(=O)cc(COc3ccc(NC(=O)c4ccccc4F)cc3)nc2c1 1.65%
